Substitutions are numbered along the chain they refer to. No constants are given. Whether binding was seen depends on the method and setting. Binding seen in cells or lysates may run through a third protein. Some entries that bind do so weakly or less than the wild type. Where a sequence is shown, tags or fusion partners need not be part of it.

Protein sequences, listed by entry. Tags and fused reporters are not part of them. Lines headed by an entry give the natural chain unless they say otherwise; changes in a name come on top. Residues count along the entry.
UniProt O00487: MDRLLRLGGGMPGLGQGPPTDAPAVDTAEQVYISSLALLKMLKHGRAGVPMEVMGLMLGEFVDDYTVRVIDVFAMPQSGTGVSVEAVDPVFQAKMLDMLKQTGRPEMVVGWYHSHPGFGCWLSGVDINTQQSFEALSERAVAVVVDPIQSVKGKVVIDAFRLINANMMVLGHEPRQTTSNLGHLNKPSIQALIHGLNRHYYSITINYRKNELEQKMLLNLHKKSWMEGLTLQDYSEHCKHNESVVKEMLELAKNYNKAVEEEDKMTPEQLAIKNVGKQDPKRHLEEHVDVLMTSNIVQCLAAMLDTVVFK
UniProt Q13200: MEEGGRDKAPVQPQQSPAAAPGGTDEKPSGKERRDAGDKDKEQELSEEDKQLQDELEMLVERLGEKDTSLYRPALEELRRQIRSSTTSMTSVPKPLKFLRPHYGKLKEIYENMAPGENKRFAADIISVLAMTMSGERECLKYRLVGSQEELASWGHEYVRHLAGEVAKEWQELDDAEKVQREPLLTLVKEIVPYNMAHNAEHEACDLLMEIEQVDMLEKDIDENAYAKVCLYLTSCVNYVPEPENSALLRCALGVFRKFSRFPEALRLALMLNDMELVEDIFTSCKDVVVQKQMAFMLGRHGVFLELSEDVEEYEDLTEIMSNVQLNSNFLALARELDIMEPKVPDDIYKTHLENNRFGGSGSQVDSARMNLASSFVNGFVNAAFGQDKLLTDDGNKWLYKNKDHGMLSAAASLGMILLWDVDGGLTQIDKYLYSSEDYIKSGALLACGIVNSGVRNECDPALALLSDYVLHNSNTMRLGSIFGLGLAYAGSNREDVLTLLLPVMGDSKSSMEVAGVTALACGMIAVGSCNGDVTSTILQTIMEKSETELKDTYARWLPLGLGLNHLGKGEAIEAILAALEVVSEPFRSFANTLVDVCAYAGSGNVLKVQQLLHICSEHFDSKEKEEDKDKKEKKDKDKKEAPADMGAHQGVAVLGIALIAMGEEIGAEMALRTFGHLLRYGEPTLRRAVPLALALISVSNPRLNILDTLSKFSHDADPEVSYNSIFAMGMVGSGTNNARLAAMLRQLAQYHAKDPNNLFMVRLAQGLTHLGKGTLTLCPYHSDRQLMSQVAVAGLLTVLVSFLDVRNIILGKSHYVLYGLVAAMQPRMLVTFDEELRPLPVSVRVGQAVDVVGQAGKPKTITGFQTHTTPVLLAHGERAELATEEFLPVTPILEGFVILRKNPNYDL
FLAG-Rpn1 (aa 1–797): residues 1-797 of Q13200
FLAG-Rpn1 (aa 1–651): residues 1-651 of Q13200
FLAG-Rpn1 (aa 1–594): residues 1-594 of Q13200
FLAG-Rpn1 (aa 408–908): residues 408-908 of Q13200
FLAG-Rpn1 (aa 408–797): residues 408-797 of Q13200
FLAG-Rpn1 (aa 595–908): residues 595-908 of Q13200
FLAG-Rpn1 (aa 652–908): residues 652-908 of Q13200

The target of assay [1] is HTBH-tagged Rpn11, O00487. The assay is described as follows: pull-down; streptavidin–agarose pull-down of HTBH-tagged Rpn11 from stable HEK293T cells co-transfected with FLAG-tagged subunits or chaperones and HA-UBLCP1 or HA-DDAA; western blot. As to conditions: remark: other sources report otherwise.
For a further assay, the target named is HTBH-tagged Rpn11 (UniProt O00487). The description is as above.
The target in assay [2] is FLAG-Rpn1 (aa 652–908) (human) (UniProt Q13200). The assay is described as follows: co-IP; HEK293T co-transfected with tagged proteins; FLAG lysis buffer (300 mM NaCl, 25 mM Tris–HCl pH 7.5, 2 mM EDTA, 1% Triton X-100); IP with anti-FLAG antibody, western blot; some panels with UBLCP1 knockout, siRpn1 or HA-Rpn1 overexpression. (In general: In western blotting, separated proteins are transferred to a membrane and probed.)

Assay [3] addresses FLAG-Rpn1 (aa 408–908) (human) (UniProt Q13200). The description is as above.
Assay [4] deals with FLAG-Rpn1 (aa 1–651) (human) (UniProt Q13200). The description is as above.
In assay [5] the target is FLAG-Rpn1 (aa 1–594) (human) (UniProt Q13200). The assay is described as above.
The next assay deals with FLAG-Rpn1 (human) (UniProt Q13200). The description is as above.
In assay [6] the target is FLAG-Rpn1 (aa 595–908) (human) (UniProt Q13200). The assay is described as above.
Assay [7] has as its target FLAG-Rpn1 (aa 408–797) (human) (UniProt Q13200). The assay is described as above.
For assay [8], the target named is FLAG-Rpn1 (aa 1–797) (human) (UniProt Q13200). The description is as above.
Another assay deals with FLAG-PAAF1 (human) (UniProt Q9BRP4). The description is as above.

B1: FLAG-PAAF1, Q9BRP4 1-392 (protein)
chain: MAAPLRIQSDWAQALRKDEGEAWLSCHPPGKPSLYGSLTCQGIGLDGIPEVTASEGFTVNEINKKSIHISCPKENASSKFLAPYTTFSRIHTKSITCLDISSRGGLGVSSSTDGTMKIWQASNGELRRVLEGHVFDVNCCRFFPSGLVVLSGGMDAQLKIWSAEDASCVVTFKGHKGGILDTAIVDRGRNVVSASRDGTARLWDCGRSACLGVLADCGSSINGVAVGAADNSINLGSPEQMPSEREVGTEAKMLLLAREDKKLQCLGLQSRQLVFLFIGSDAFNCCTFLSGFLLLAGTQDGNIYQLDVRSPRAPVQVIHRSGAPVLSLLSVRDGFIASQGDGSCFIVQQDLDYVTELTGADCDPVYKVATWEKQIYTCCRDGLVRRYQLSDL
Consider B1, for which the binding entry in [1] is reported as “binds”.

B2: FLAG-p27 (protein, UniProt O00233 1-223)
chain: MSDEEARQSGGSSQAGVVTVSDVQELMRRKEEIEAQIKANYDVLESQKGIGMNEPLVDCEGYPRSDVDLYQVRTARHNIICLQNDHKAVMKQVEEALHQLHARDKEKQARDMAEAHKEAMSRKLGQSESQGPPRAFAKVNSISPGSPASIAGLQVDDEIVEFGSVNTQNFQSLHNIGSVVQHSEGKPLNVTVIRRGEKHQLRLVPTRWAGKGLLGCNIIPLQR
For B2, the binding result in the assay with HTBH-tagged Rpn11 is “binds”.

B3: HA-UBLCP1 (protein, UniProt Q8WVY7 1-318)
chain: MALPIIVKWGGQEYSVTTLSEDDTVLDLKQFLKTLTGVLPERQKLLGLKVKGKPAENDVKLGALKLKPNTKIMMMGTREESLEDVLGPPPDNDDVVNDFDIEDEVVEVENREENLLKISRRVKEYKVEILNPPREGKKLLVLDVDYTLFDHRSCAETGVELMRPYLHEFLTSAYEDYDIVIWSATNMKWIEAKMKELGVSTNANYKITFMLDSAAMITVHTPRRGLIDVKPLGVIWGKFSEFYSKKNTIMFDDIGRNFLMNPQNGLKIRPFMKAHLNRDKDKELLKLTQYLKEIAKLDDFLDLNHKYWERYLSKKQGQ
As to B3, the binding result in assay [2] is recorded as “binds”; in [3] it was “binds”; in assay [4] it was “no binding”; in assay [5], “no binding”; in the assay with FLAG-Rpn1 (human), “binds”; in assay [6], “binds”. Further, the binding result is “no binding” in assay [7], “no binding” in assay [8] and “binds” with FLAG-PAAF1 (human).

B4: HA-UBLCP1 DDAA (protein, UniProt Q8WVY7 1-318)
chain: B3 chain with D143A, D145A
In the case of B4, the binding entry with FLAG-Rpn1 (human) and with FLAG-PAAF1 (human) was “binds” throughout.

(Values after article PMC5451543.)
